Experimental data published in the supplement of paper PMC3334620.
Whole data set: some 33,000 sequences, median “E-score (-0.5 to 0.5)” near -0.011, cut for the highest 2% near 0.28. This is one part of the list.

What follows are sequences tested against T1, Gcr1 (UniProt P07261) (assay: PBM E-score (8-mer binding enrichment) (E-score (-0.5 to 0.5)); higher = stronger / more preferred TF binding; most listed sequences are background and not binding sites). Conditions: protein concentration: 100 nM; construct: GST-full length.
T1 sequence: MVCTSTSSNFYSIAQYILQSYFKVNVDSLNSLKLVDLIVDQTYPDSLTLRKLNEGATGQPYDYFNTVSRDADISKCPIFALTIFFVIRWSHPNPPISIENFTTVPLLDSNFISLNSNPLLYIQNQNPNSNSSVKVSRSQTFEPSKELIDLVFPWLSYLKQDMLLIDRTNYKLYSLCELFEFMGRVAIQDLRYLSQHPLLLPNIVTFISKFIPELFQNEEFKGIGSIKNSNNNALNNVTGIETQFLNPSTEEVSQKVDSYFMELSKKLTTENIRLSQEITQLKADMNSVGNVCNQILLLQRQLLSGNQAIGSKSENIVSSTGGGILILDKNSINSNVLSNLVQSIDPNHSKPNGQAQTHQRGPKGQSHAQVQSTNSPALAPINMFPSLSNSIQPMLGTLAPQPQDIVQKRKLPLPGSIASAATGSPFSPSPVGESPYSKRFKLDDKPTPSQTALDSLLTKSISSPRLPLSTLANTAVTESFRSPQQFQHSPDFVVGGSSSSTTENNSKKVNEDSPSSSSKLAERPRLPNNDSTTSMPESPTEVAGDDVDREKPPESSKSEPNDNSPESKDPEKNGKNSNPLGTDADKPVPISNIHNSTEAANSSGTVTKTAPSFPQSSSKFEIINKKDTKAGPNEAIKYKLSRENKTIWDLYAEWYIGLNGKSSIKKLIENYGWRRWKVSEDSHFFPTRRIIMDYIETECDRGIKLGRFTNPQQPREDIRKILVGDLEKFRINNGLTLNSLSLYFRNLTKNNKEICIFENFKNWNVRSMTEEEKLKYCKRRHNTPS
Outline: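 Yeast transcription factors, full-length or as DNA-binding domains, were expressed with a GST tag using PURExpress in vitro transcription/translation. At about 100-200 nM they were applied to universal all-10-mer Agilent arrays, double-stranded by primer extension on fresh or once-stripped slides. Fluorescent anti-GST detected bound protein, and masliner normalised the scans. E-scores for ungapped eight-base words, pooled with reverse complements, came from the Universal PBM Analysis Suite.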

Row | Sequence | PBM E-score
1 | CGGTATAC | 0.0322
2 | GTGCCAGA | 0.121
3 | GTTACCAA | 0.0112
4 | ACAGAGTC | -0.146
5 | GAGTTTCC | 0.0419
6 | GTTGCTCA | 0.204
7 | CGGGACAG | 0.0286
8 | AGCGCCAA | 0.124
9 | AAAGAGCA | -0.0643
10 | ACTCACCT | -0.102
11 | GAACTATA | -0.0227
12 | ACTCTAGG | -0.0525
13 | GTACGAAA | 0.0588
14 | AACTCATA | -0.0113
15 | AGTTATAT | 0.0556
16 | ACGCGCGA | -0.146
17 | CGGACAGC | -0.212
18 | CCGAGAGA | 0.153
19 | CGAGTCTA | -0.0668
20 | TCAAATCA | -0.0648
21 | CAAGGGGA | -0.00263
22 | AAGCGCCC | 0.0219
23 | AAAGGGTA | -0.151
24 | AACTGATG | -0.0241
25 | CACGGATG | -0.216

Row | Sequence | PBM E-score
26 | CCATCACA | -0.166
27 | AGGGCCTG | -0.252
28 | GAACATTA | 0.0391
29 | ATTGCCTG | -0.0693
30 | AGTATTAG | 0.0751
31 | AAATCGGC | 0.186
32 | AGCAACCA | 0.349
33 | CGGTGACC | 0.0679
34 | CTGCCCGA | 0.0379
35 | AAAAACCT | 0.0232
36 | AACACCAA | -0.0252
37 | AGTACAAG | 0.154
38 | ATACAACG | 0.0368
39 | ATCATTTC | 0.0852
40 | ACCGAGCG | -0.00066
41 | ACGTACGT | -0.194
42 | ACTACTCA | 0.0669
43 | CGGCCTAG | -0.0643
44 | CTAAAACC | 0.223
45 | AAAGGCAC | 0.182
46 | ACAGCACG | -0.122
47 | CGCGTCGA | -0.215
48 | CGTTCCAC | 0.0103
49 | AGGCCTGG | -0.184
50 | ACACAGCG | -0.0347

Row | Sequence | PBM E-score
51 | TAGTCCAA | -0.0805
52 | GTGATGGA | 0.0992
53 | TCCGTGCA | -0.0337
54 | ACATACGA | 0.0571
55 | ACATCGTA | 0.148
56 | AGTACTGG | 0.0646
57 | TCGTTCCA | -0.00624
58 | ATGTTTGC | -0.235
59 | ATTAAAGA | 0.178
60 | CAAGCCAA | -0.133
61 | GAGTAGCA | -0.0796
62 | ATAGACTC | -0.134
63 | CAACCTTA | 0.00398
64 | CTTAATTA | 0.00266
65 | CAGACTAC | -0.0609
66 | TAAGTACA | -0.00586
67 | GGGTCCAA | 0.176
68 | GGAATAAA | -0.184
69 | CGGACCTA | -0.0122
70 | ATCATAAA | -0.0195
71 | TTCCGAAA | 0.255
72 | CCAAGTTA | 0.169
73 | ATTTAATC | 0.208
74 | CAGGAATA | 0.134
75 | GGTCCGTA | -0.0855

Row | Sequence | PBM E-score
76 | ACACTCCC | -0.194
77 | CATTTTCA | 0.155
78 | GCTTGGGA | 0.0628
79 | ACATCCGG | 0.0345
80 | CGGACGCC | 0.416
81 | ATCAGCAG | -0.0649
82 | CACTGGAG | -0.0119
83 | AGGAGCCT | 0.109
84 | ACAGCGTC | -0.0458
85 | GGATGGAA | 0.0371
86 | AATGGCCT | -0.284
87 | CGTCTGAA | -0.0244
88 | GCGGTGCA | -0.242
89 | ATAGCCAA | -0.101
90 | AATGAGTA | 0.143
91 | ATTAAATG | 0.0781
92 | CTGTACCC | 0.0612
93 | GGTAAAGA | 0.0149
94 | CTGGCTTA | -0.159
95 | GGTTCGCA | -0.0255
96 | AATTTTAA | 0.0234
97 | AACTGGGT | 0.2
98 | ACGATTTG | -0.0181
99 | CTATTAGC | 0.0236
100 | AAATGCCC | -0.175

Row | Sequence | PBM E-score
101 | ACCTTCCG | -0.0645
102 | CGGGCCGA | -0.283
103 | GGTTGTAA | -0.138
104 | TTCAAGAA | 0.0602
105 | CCGAATGC | -0.105
106 | TCCTAGCA | 0.175
107 | TCGAGAAA | 0.0343
108 | AGGGAAGC | 0.281
109 | AGTCAGGA | 0.0997
110 | GAAGGCCC | 0.112
111 | CCTTCCCG | -0.248
112 | CTGCCAAG | 0.0411
113 | AGAAAAAG | 0.0881
114 | GCGGGGAA | 0.0569
115 | AGTTAAGG | -0.16
116 | AGTCTGAG | 0.00427
117 | ATCGCGGG | -0.0646
118 | TAGGAATA | -0.114
119 | ACTGCTCG | -0.0276
120 | CTATTTAA | 0.309
121 | ACATAGCA | -0.0972
122 | GTCTTTAA | 0.0169
123 | CCGTATAG | 0.0155
124 | CCAGTACG | 0.0637
125 | AGACATAA | 0.0136

Row | Sequence | PBM E-score
126 | GCAGAAGA | 0.0794
127 | ATTTTATG | 0.0886
128 | CTACGTGC | 0.0162
129 | CTAGCGAC | 0.0972
130 | AATCCCAG | 0.156
131 | GTGCCCTA | -0.0516
132 | GTCGCTTA | -0.135
133 | TATCGGAA | 0.195
134 | AGTCCATC | -0.0325
135 | GCAGTATA | -0.0897
136 | TCGGCTCA | -0.242
137 | GCCATGGA | -0.0314
138 | GAGTACGA | 0.0845
139 | ACCTGGCT | 0.0813
140 | AACATGAC | 0.0559
141 | CGTCGCGA | -0.0117
142 | GTGGACCA | -0.141
143 | CAAGAAGG | 0.203
144 | AATGTTCA | 0.194
145 | GTCCGTGA | -0.132
146 | CGTCAAGC | -0.061
147 | AGACTGAT | -0.157
148 | GGTCGGTA | -0.2
149 | CGGGGGCC | 0.0873
150 | CACTCTGC | -0.173

Row | Sequence | PBM E-score
151 | GATGCACC | -0.0599
152 | AGGACTAG | 0.0816
153 | ACTGCTTC | -0.191
154 | CTAACCAC | -0.0645
155 | GATTGCCC | -0.148
156 | CGTTTGTC | -0.062
157 | CTCAAAAC | 0.014
158 | CGTCCTGA | 0.109
159 | CCCTCGTC | -0.193
160 | CAAACCTC | -0.221
161 | CAGTTTAG | -0.0382
162 | CGGGATGA | -0.188
163 | ACAGCTTC | 0.345
164 | GTCTTACA | -0.214
165 | GTAGGGAA | -0.109
166 | GTGGCTGA | 0.0603
167 | GTCTCAAA | 0.0295
168 | GATTCACA | 0.0985
169 | AAAACCTG | -0.0358
170 | GAATCTTA | 0.143
171 | ATAAGTGC | 0.0635
172 | CAAAACCA | 0.0676
